In PubChem BioAssay AID1347165 (National Center for Advancing Translational Sciences (NCATS), 2019):
The campaign covered roughly 220,000 compounds. About 5,700 (2.6%) were called active. The shares of active, inactive and inconclusive entries below differ from those in the screen. Calls come from the whole dose curve; as a rule, active = well fitted inhibition curve with a large enough effect; inconclusive = small, poorly fitted or top-dose-only effect; inactive = no such curve, though single readings can be large or run the other way. A potency beside an inconclusive call is a rough fit, not a confirmed value.

Target: Lysine-specific demethylase 5B (Homo sapiens) (UniProt Q9UGL1)
Sequence of UniProt Q9UGL1 (Q9UGL1 whole entry, looked up): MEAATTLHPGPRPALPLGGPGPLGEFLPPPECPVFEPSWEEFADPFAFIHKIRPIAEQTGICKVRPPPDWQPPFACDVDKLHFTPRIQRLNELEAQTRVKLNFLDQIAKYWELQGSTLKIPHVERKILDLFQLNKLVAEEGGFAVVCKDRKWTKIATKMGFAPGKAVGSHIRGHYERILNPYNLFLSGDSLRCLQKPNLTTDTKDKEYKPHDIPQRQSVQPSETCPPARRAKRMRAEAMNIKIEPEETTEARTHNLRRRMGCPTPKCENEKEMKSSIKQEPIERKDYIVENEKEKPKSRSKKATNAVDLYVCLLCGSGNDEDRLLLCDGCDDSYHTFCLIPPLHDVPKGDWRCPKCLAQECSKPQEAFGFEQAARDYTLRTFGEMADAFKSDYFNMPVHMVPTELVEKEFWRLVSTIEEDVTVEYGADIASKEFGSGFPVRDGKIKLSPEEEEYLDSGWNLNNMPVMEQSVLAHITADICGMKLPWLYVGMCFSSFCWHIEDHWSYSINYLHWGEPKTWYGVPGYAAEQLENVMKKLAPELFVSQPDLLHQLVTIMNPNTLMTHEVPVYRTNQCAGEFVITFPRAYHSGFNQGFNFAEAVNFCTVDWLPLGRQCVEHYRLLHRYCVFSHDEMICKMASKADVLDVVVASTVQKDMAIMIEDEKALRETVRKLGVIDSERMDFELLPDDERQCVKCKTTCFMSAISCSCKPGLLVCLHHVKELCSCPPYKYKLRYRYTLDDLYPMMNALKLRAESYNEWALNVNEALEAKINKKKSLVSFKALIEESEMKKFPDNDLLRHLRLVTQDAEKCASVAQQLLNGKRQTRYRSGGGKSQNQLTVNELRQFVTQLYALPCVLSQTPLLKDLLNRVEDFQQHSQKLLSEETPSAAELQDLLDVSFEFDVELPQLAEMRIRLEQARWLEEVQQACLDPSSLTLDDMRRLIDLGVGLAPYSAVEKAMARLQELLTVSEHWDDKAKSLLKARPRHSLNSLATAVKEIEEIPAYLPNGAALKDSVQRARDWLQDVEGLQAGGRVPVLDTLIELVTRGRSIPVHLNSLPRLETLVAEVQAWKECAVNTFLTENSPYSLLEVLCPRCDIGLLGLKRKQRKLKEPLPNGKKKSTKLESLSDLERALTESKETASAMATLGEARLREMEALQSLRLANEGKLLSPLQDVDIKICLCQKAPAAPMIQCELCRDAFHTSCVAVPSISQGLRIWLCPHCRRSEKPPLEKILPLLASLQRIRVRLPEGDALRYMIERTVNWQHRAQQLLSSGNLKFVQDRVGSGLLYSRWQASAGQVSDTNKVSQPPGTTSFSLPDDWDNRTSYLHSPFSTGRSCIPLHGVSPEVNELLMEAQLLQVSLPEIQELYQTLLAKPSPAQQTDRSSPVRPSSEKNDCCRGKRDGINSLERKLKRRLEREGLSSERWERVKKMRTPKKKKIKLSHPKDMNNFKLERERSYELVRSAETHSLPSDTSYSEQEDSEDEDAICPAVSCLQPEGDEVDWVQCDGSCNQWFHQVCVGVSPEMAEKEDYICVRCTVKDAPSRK
Experiment: Primary screen for KDM5B Histone Demethylases FDH-coupled qHTS; note: nearly all actives have a fitted effect of over 70% in size; for activity change, negative = inhibition: 0% is about no effect
Conditions: FDH-coupled NADH fluorescence (FDH is formaldehyde dehydrogenase); activity change, negative = inhibition: at 57.7 µM (top of the series) unless noted
How it was run: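 Measured: NADH fluorescence change, 30 min, RT. System: KDM5BΔAP 200 nM final, H3K4me3 peptide, α-KG, Fe(II), ascorbate, NAD⁺ plus FDH, pH 7.5 HEPES. Compounds: titrated, 10 min pre-incubation with enzyme.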
Potency is the fitted concentration of half-maximal effect; tags give direction and shape of the fitted curve.

Row | Structure (SMILES) | Potency | activity change, negative = inhibition
1 | COc1ccc2c(CNCCc3cccs3)c(C(=O)O)n(Cc3ccc(F)cc3Cl)c2c1 | inconclusive: 14.1 µM [inhibitor, partial curve, poor fit] | –
2 | Cc1cc(N2CCCC(Cn3cc(Cc4ccccc4)nn3)C2)nc(N)n1 (configuration not stated) | inconclusive: 39.8 µM [inhibitor, partial curve, poor fit] | –
3 | CCC(Sc1nnc2c3ccccc3n(CC)c2n1)C(=O)Nc1nnc(C(C)C)s1 (configuration not stated) | inconclusive: 39.8 µM [inhibitor, single point] | –
4 | COc1ccc(-c2cc3nc(C4CCN(C(=O)OC(C)(C)C)CC4)c(C(=O)Nc4cc(C)cc(C)c4)cn3n2)cc1 | – | inconclusive: -30.6% [inhibitor]
5 | Cn1c(=O)cc(SCC(=O)N2CCN(c3ccccc3F)CC2)c2ccccc21 | inconclusive: 25.1 µM [inhibitor, partial curve, poor fit] | –
6 | COc1ccc(S(=O)(=O)N2C[C@@H]3C[C@H](C2)c2ccc(-c4ccc(OC(F)(F)F)cc4)c(=O)n2C3)cc1 | active: 28.2 µM | –
7 | N#CC1=C2SCN(C3CCCCC3)CN2C(=O)CC1c1ccc(Cl)cc1 (configuration not stated) | inconclusive: 3.98 µM [inhibitor, full curve, poor fit] | –
8 | Cc1ccc(NC(=O)N[C@@H]2C=C(C(=O)N[C@H]3CCCNC3=O)C[C@@H](O)[C@@H]2O)cc1 | inconclusive: 31.6 µM [inhibitor, partial curve, poor fit] | –
9 | CN1CC(=O)N(C2CCCNC2)Cc2c(NCCOc3ccccc3)ncnc21 (configuration not stated) | active: 44.7 µM | –
10 | Cc1ccc(C(=O)NCc2c(C)ncc3c2CCNC3)cc1Cl | inactive | –
11 | Cc1ccc(CNC(=O)Cn2c(=O)n(-c3ccc(C)cc3)c(=O)c3c2c2cc(C)ccc2n3C)cc1 | inconclusive: 1.26 µM [inhibitor, full curve, poor fit] | –
12 | CCN(CC)S(=O)(=O)c1ccc(N2CCOCC2)c(NC(=S)NC(=O)c2ccco2)c1 | inconclusive: 25.1 µM [inhibitor, single point] | –
13 | CCCSC(=S)c1c(C)[nH]n(-c2ccccc2)c1=O | inconclusive: 22.4 µM [inhibitor, single point] | –
14 | N#Cc1nc(-c2ccc(COc3ccccc3)o2)oc1N1CCCCC1 | inconclusive: 31.6 µM [inhibitor, partial curve, poor fit] | –
15 | CC(=O)NS(=O)(=O)c1ccc(NC(=O)C2c3ccccc3Oc3ccccc32)cc1 | inactive | –
16 | O=S(Cc1cccc(Cl)c1)Cc1cccc(C(F)(F)F)c1 (configuration not stated) | inactive | –
17 | Cc1ccc(-c2ccc3nnc(CNC(=O)C4CCCCC4)n3n2)cc1C | inconclusive: 3.55 µM [inhibitor, partial curve, poor fit] | –
18 | CC(C)CS(=O)(=O)CCC(=O)O | inactive | –
19 | COc1ccc(-c2ccc3c(n2)CN(Cc2csc(C)n2)C(=O)CO3)cc1F | active: 35.5 µM | –
20 | O=C(NCc1ccccc1F)c1ccc(CSc2nc3cccnc3n2Cc2ccccc2)cc1 | inconclusive: 35.5 µM [inhibitor, partial curve, poor fit] | –
21 | N#CC1=C(N)N(c2cccc(C(F)(F)F)c2)C2=C(C(=O)CCC2)C12C(=O)Nc1ccc(F)cc12 (configuration not stated) | inactive | –

Row | Structure (SMILES) | Potency | activity change, negative = inhibition
22 | CCC(=O)N1CCc2cc(CNC(=O)c3ccc(F)cc3)ccc21 | inconclusive: 7.94 µM [inhibitor, partial curve, poor fit] | –
23 | COc1ccc(CCC(=O)Nc2cc(S(=O)(=O)N3CCCCC3)ccc2N(C)C)cc1 | inconclusive: 22.4 µM [inhibitor, single point] | –
24 | COc1cccc(N2CCN(C(=O)c3nn(C)c4c3CSc3ccc(C)cc3-4)CC2)c1 | inconclusive: 22.4 µM [inhibitor, single point] | –
25 | O=c1c2cc(Br)ccc2ncn1Cc1ncc(-c2ccccc2)o1 | inactive | –
26 | CCc1cc(=O)oc2cc(OCC(=O)Nc3cc(C)on3)ccc12 | inconclusive: 28.2 µM [inhibitor, partial curve, poor fit] | –
27 | CCC(=O)Oc1ccc2c(=O)c(Oc3cc(C)cc(C)c3)coc2c1 | inconclusive: 25.1 µM [inhibitor, partial curve, poor fit] | –
28 | Cc1ccc(-c2nc3sccn3c2Nc2ccc(C)c(C)c2)cc1 | inconclusive: 3.55 µM [inhibitor, partial curve, poor fit] | –
29 | Cc1cn2nc(C(=O)NCc3ccc(F)cc3)cc2c(N(C)Cc2ccccc2)n1 | active: 25.1 µM | –
30 | CCCC1(CO)CCCN(Cc2cc(-c3ccc(C)cc3)no2)C1 (configuration not stated) | inconclusive: 7.94 µM [inhibitor, partial curve] | –
31 | COc1cccc(CC(=O)NC2CCN(c3cc(-c4ccccc4)[nH]n3)C2)c1 (configuration not stated) | inconclusive: 25.1 µM [inhibitor, partial curve] | –
32 | CCOc1ccc(N(CC)C(=O)c2cc3c(s2)-c2ccccc2OC3)cc1 | inconclusive: 28.2 µM [inhibitor, partial curve, poor fit] | –
33 | C=C(C)COc1cc(C)cc2oc(=O)c(CC(=O)NCCc3ccc(S(N)(=O)=O)cc3)c(C)c12 | inconclusive: 20 µM [inhibitor, partial curve, poor fit] | –
34 | O=C(c1ccc2c(c1)OCO2)N1C[C@@H]2C[C@H](C1)c1ccc(-c3cccc(C(F)(F)F)c3)c(=O)n1C2 | active: 28.2 µM | –
35 | COc1ccc(NC(=O)c2cc(-c3ccccc3O)on2)cc1OC | inconclusive: 39.8 µM [inhibitor, single point] | –
36 | CCc1cccc2c1NC(=O)C2(O)CC(=O)c1ccc(Cl)cc1 (configuration not stated) | inactive | –
37 | COCC1CN(C(C)=O)CC12CCN(C(=O)c1ocnc1C)CC2 (configuration not stated) | inactive | –
38 | CS(=O)(=O)Nc1ccc(C2=NN(C(=O)CCC(=O)O)C(c3ccc(F)cc3)C2)cc1 (configuration not stated) | inconclusive: 25.1 µM [inhibitor, partial curve, poor fit] | –
39 | CN(C)C(=O)c1ccc(NC(=O)CCc2ccco2)cc1 | inactive | –
40 | COCCC(=O)NC(C)C(=O)N1CCN(c2ccccn2)CC1 (configuration not stated) | active: 25.1 µM | –
41 | N#Cc1cc2c(nc1SCC(=O)NCCc1ccccc1)CCCC2 | inactive | –
42 | C1CCN(CC2CCCN2)CC1 (configuration not stated) | inconclusive: 25.1 µM [inhibitor, single point] | –
